# Test results taken from the supplement of paper PMC11417369.
# Some of the results follow.
# Test system: PfAP2-HC AP2 domain (GST-tagged)
# Experiment: gcPBM binding intensity (ln(normalized median fluorescence intensity)); higher = stronger DNA binding
# Outline: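 The highest Masliner-normalised natural-log median intensity across replicate spots of either probe orientation is reported as binding intensity. GST-tagged P. falciparum DNA-binding domains expressed in E. coli were applied for 1 h to an Agilent 4 × 180k array of primer-extended double-stranded 36-bp intergenic genomic probes plus negative controls, and bound protein was detected with Alexa488 anti-GST antibody and scanned at 488 nm.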
row,Sequence,gcPBM binding intensity (ln)
1,ATATATTTCAAAGGGGTGCAGGCATATTTAAGCAAA,9.64
2,TCTTTTTAATTTATATGTACTTATATTAATTATAAG [XGTACX_site7524],9.59
3,GTGCATATACAAATATGTACTTAAACGTTTTTTTTT [XGTACX_site7362],9.8
4,TTTTTCTTTTGATGTTGTACATATATATCATATAAT [XGTACX_site1189],9.68
5,GTTTATTCATCATACGGTACACATAAATAATATATA [XGTACX_site6931],9.66
6,AAGACTTCTCCATATACACACACCAACAAATATAAA [CACACA_site2779],10
7,GATGAATAAATCAAAGCACACATACACCCACATATA [CACACA_site7986],11.2
8,TTCGTTTAAATCAAGTGTACATATTATATATAATAT [XGTACX_site7599],9.74
9,ATTTTTTTTTTTTTTTTTTGGTTTTCTTTAGGAGTT [CACACA_negctrl_site1258],9.46
10,CGTTATATATGTATTACATGCAATATATGTACGTAA [TGCATGCA_site274],9.64
11,TAAATAATATCCCTTTGTACGTATTTTTTTTTATTA [XGTACX_site7303],9.77
12,GAAATAAGTTAAAATAGTACGTAGTGTTCCTTAAGT [XGTACX_site6557],9.81
13,TTAGGAAAACAAAAATGTACGCATATATATTATTGA [XGTACX_site8288],9.62
14,TTAAAAATAATATATTGTACACATACTTATTTTAAT [XGTACX_site1348],9.67
15,ATATATCTGTATGGCACACACGGATAAATATATATA [CACACA_site4668],10
16,TATATTTGTACATGATATTTTTTTTTTCTTTTAAAA [CACACA_negctrl_site754],9.43
17,TGTATTTAGAAACATACACACATATTAAGTTTACAT [CACACA_site5689],9.85
18,GGAAAATTATCAATAGCATGCAAAATGTGAATATTA [TGCATGCA_site901],9.86
19,TTTCCTCATTTTATCATACACACTTATTTATATGTG [CACACA_site900],9.86
20,GCCAAAATATAATTTACACACTTATTAAATAATTAT [CACACA_site236],9.62
21,AGAATAATACAAAAATGTACATTAATAAAAAGATAG [XGTACX_site780],10.4
22,ATAGTATCTGGTAGCTGTACGAGTCGTAGAGAGTAG [XGTACX_site2546],9.7
23,TTATTATTTCTTAGTAGTACTATATAATTTTTTTTT [XGTACX_site1847],9.72

row,Sequence,gcPBM binding intensity (ln)
1,TAATAACTACAAAAAAAAAAGAAAAATAGAAAAAGG [CACACA_negctrl_site1102],9.58
2,TCGTGTTAAACTTTTACACACAAACTTGCAATAATT [CACACA_site7745],9.94
3,TGCTTTATTATTTATTGTACATGTAAAATGAGAGAG [XGTACX_site2288],9.5
4,TTTGTTTAAATTAAATGTACATAAAGAATAATATAT [XGTACX_site5093],9.57
5,AATTATATGAAATAAACACACATATGTAATATTACA [CACACA_site1928],9.95
6,AGAAGGTAAATAATTTACCCATATATATAAATATAT [GTGCAC_negctrl_site631],9.48
7,ATTGAATATGGATATGTGCACATATGTATATAAGTA,10.2
8,AAAACATTGTTGAACTGTTTTATTTATAAATATAAG [XGTACX_negctrl_site393],9.27
9,ATATATATACTGTGTACACACATATGTATTTATATA [CACACA_site4600],9.99
10,AAAAAAGTTGTATTTGCACACATAAAAAAAAGATAT [CACACA_site3839],9.93
11,AATTTAAAAATGGACACACACAAAAAATAATACTTA [CACACA_site250],10.7
12,GTATATTATATTGGGTGTACCATATATAATATAATC [XGTACX_site8579],9.53
13,TTATAAATAAAAAATACACACATATATATATATATA [CACACA_site207],9.57
14,AAAAATTAACAAAAGGTGCAATTTATTTATTAACGG,9.6
15,TATTTTAATATGTATACATGCATACCTACTCATACA [TGCATGCA_site779],9.67
16,TAAAATTTTATAAAGGAACACACATTTTTTTTTTTT [CACACA_site8740],9.65
17,AACTTGTATTTATACACACACACACTGTCTTTTTTT [CACACA_site7009],10.5
18,TAGACAAAATATAATGCACACTATTATTTTTATTTA [CACACA_site5508],9.65
19,AAGAAAAATATATAAATAAATAAATATATAAATATA [CACACA_negctrl_site836],9.61
20,TAAAAATATATATGATTGCACTTAGGACAATATATA,9.62
21,GGAAACAAAAAATATATACACACTAATCATAAAAAA [CACACA_site7890],9.82
22,ATTAATATATTATCATGTACACAAAAATAATTTTAT [XGTACX_site7257],9.59
23,TATTCTCTCTTATGAACACACATTTTTATTTTCAAA [CACACA_site7554],9.77

row,Sequence,gcPBM binding intensity (ln)
1,TTTTAATAAAAGCCCATGCACACCTTAGAAAGTTTT [CACACA_site346],9.56
2,ATATATATGTGTAAAAGTACATATATTTTGAAATAT [XGTACX_site4024],9.82
3,TAAATATATATTATATGTACTTATATATATATATAT [XGTACX_site4448],9.57
4,TAAATCAGCCATAACACACATACATATATACATAAA [CACACA_site396],9.95
5,TTTTTCATTTTTAAAATAATTATAATATTATACATA [XGTACX_negctrl_site43],9.19
6,ATAATTAACAAATACACACACACACGCCCACAAAAA [CACACA_site6389],11.6
7,AGCAAATAAATAAATAAATAAATAAATATATATATA [TGCATGCA_negctrl_site40],9.61
8,CAATCAAATGGACACACACACACCTAAACATAAAAG [CACACA_site5524],10.5
9,ATTAAAAAATTACAAGCATGCTTGTTAAAATTTTTT [TGCATGCA_site941],9.42
10,CTTTTTTTTTTAAATTGTACAAATGTGATGTAATAG [XGTACX_site3219],9.24
11,TGGGCACCCATATACACACACAAATACAATGATAAA [CACACA_site4762],9.91
12,TATATATATGTATATGTGCACAGTTTTCTTATTAAA [GTGCAC_site9990],9.63
13,GGAAAAGGTATCCGTTCACACATAAATGGATACCAT [CACACA_site5072],9.49
14,AAAAAAAAAAAAATGTGTACATACATATATTTATAT [XGTACX_site3076],9.74
15,TCTATATAGATTTGCACACATAAAAATGCTTATATA [CACACA_site2389],9.81
16,ATTACATATTGATAAGTGCAAGTGTGAGAAATGTTA,9.82
17,AATATATTATATATATGTACATATGTGTATACATTT [XGTACX_site937],9.79
18,TTTTATTTATTTTATTGTACATATATAAAACTATGA [XGTACX_site3476],9.44
19,TTTTTTTTTTTTGAAACATGCATTGTTTTATTCTTA [TGCATGCA_site15],9.46
20,TCTATACCTATTCTTACACACATATGTATATATATA [CACACA_site563],10.1
21,AAAAAAAGATTATACACACACATATATAAACCTACA [CACACA_site710],10.7
22,TTTTTTTTTTTTTGTTGTACAATACTTAATCATTAT [XGTACX_site3422],9.6
23,ATATATATATAATCAAGTACACAGTAATAAAAAGAA [XGTACX_site1070],10.2

row,Sequence,gcPBM binding intensity (ln)
1,AATAATAACTGTAGGTGTACGTAAAAAAAAAATTAT [XGTACX_site3133],9.92
2,ATTGTGTTCATCAGCACACACAACATCATGCAATAA [CACACA_site6960],9.9
3,TAAATGCACATATACACACACCCAATTTTAAGTTTT [CACACA_site7428],10.9
4,ATACATATTACATGTTGTACTCCAACAAAAATGCCC [XGTACX_site3201],9.67
5,TTAATTTCATTTTCTACACACCTATCCTTTTTTTTT [CACACA_site772],9.88
6,ACATCAAGAATTATTAAGAATACGGATAGATAAAAT [GTGCAC_negctrl_site261],9.57
7,AATAAAAAAAGTTTTTTTTTTTTTTAAACAATAGAC [CACACA_negctrl_site1061],9.49
8,ATAATAATAATAAAAAGTACATTTAATTATATAGAA [XGTACX_site7742],9.69
9,AATAACCACCAACACACACACATATATATATATATA [CACACA_site3540],10.2
10,AAAAATTTAATGAAATGTACATATATGTTATTAATA [XGTACX_site6091],9.6
11,TATATGTTTTAAAAGTGTACTTTAGTTTCAATTTTT [XGTACX_site4269],9.49
12,AAGAATGTTAATAGTACACACAATTATTATATAAAT [CACACA_site3739],9.93
13,AATGTATATATGTAATGTACATATGTAATGTATATA [XGTACX_site6509],9.94
14,TTTTGTTTTGTTTTGTTTTGTTTTGTTTTATTTTAT [GTGCAC_negctrl_site383],9.72
15,AATATAGATATAACCACACACATACATCTAATTCTA [CACACA_site1760],10.2
16,GAAAAGAACAAGAGCATGCACTTAATAAGAATAATA,9.78
17,TGTTTCTTATTTTTTTCACACACTAAACATTTCAAA [CACACA_site2218],9.9
18,TTTCAAAATGTGTAAAATAAAAATAATATCATTACA [TGCATGCA_negctrl_site521],9.46
19,ATGTGATATAAGTACACACACATATGTATATAGAAT [CACACA_site1823],10.4
20,TATATATGTGTTATATACCCTTTTTTATATATTAAT [XGTACX_negctrl_site313],9.75
21,CATACATAGATATATACACACATACCTATAAATACA [CACACA_site6513],10.2
